{"source": "PubChem BioAssay AID686978", "about": "(National Center for Advancing Translational Sciences (NCATS), 2013)", "note": "Where “and” joins values, the source holds several entries; their conditions need not be identical. Equal values may be shown once. Out of some 420,000 compounds screened, about 64,000 (15%) were called active. Inconclusive means that the source gave no clear call. Such entries were picked first, then a sample of the others. Calls follow the shape of the dose curve; as a rule, active = well fitted inhibition curve with a large enough effect; inconclusive = small, poorly fitted or top-dose-only effect; inactive = flat fitted curve, though single readings scatter. Where the call is inconclusive, the potency comes from a doubtful curve fit. % is scaled to controls: 0 for no effect and ±100 for the full control effect; potency is read from the fitted curve at half-maximal effect; tags tell the direction and shape of the fitted curve."}
{"assay": "qHTS for Inhibitors of human tyrosyl-DNA phosphodiesterase 1 (TDP1): qHTS in cells in absence of CPT; also: nearly all actives have a fitted effect of over 55% in size", "conditions": "DT40 Tdp1-/- hTDP1 cells, no CPT, ATP luminescence, 48 h; activity change, negative = growth inhibition: at 46.2 µM (top of the series) unless noted", "summary_of_the_method": "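Chicken DT40 Tdp1-/- cells stably complemented with human TDP1 were seeded at 400 cells/well with DMSO in place of 20 nM camptothecin. After compound pinning, cells grew at least 48 hr at 37 °C; viability read by CellTiter-Glo luminescence.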"}
{"smiles": "CCCn1c(=N)n(CC(O)c2ccco2)c2ccccc21", "note": "(stereo not given)", "Potency": "inconclusive: 6.51 µM [inhibitor, partial curve]"}
{"smiles": "COc1ccc2c(C(=O)CCl)c[nH]c2c1", "Potency": "active: 3.26 µM"}
{"smiles": "C#CC(CC)(CC)NC(=S)Nc1ccc(S(N)(=O)=O)cc1", "Potency": "inconclusive: 11.6 µM [inhibitor, partial curve, poor fit]"}
{"smiles": "Nc1nonc1-c1noc(CCCCCN2C(=O)c3ccccc3C2=O)n1", "Potency": "inactive"}
{"smiles": "Oc1cccc(/C=N/NC(=S)NCCN2CCOCC2)c1O", "Potency": "active: 5.8 µM"}
{"smiles": "O=C(N/N=C1/C(=O)c2cccc3cccc1c23)c1ccc(Cl)cc1", "Potency": "active: 4.61 µM"}
{"smiles": "Cc1ccc(CN2[C@@H]3c4ccccc4C[C@@H]3OCCS2(=O)=O)cc1", "Potency": "inconclusive: 35.5 µM [inhibitor, single point] and inconclusive: 29.1 µM [inhibitor, single point]"}
{"smiles": "Cc1ccccc1Cn1c(C)c(C(=O)NCc2cccc(Cl)c2)sc1=O", "Potency": "inconclusive: 14.6 µM [inhibitor, single point]"}
{"smiles": "O=C(O)c1ccc(N2C(=O)CC(N3C(=O)/C(=C/c4ccc(Cl)cc4)SC3=S)C2=O)cc1", "note": "(stereo not given)", "Potency": "inconclusive: 11.6 µM [inhibitor, partial curve, poor fit]"}
{"smiles": "C=CCN1C(=O)C(CC(=O)Nc2ccccc2)N(Cc2ccccn2)C1=S", "note": "(stereo not given)", "activity change, negative = growth inhibition": "inconclusive: -31.3% [inhibitor]"}
{"smiles": "CSc1cccc(CN2CCN(Cc3ccc(F)c(F)c3)C(CCO)C2)c1", "note": "(stereo not given)", "Potency": "inconclusive: 16.4 µM [inhibitor, partial curve, poor fit]"}
{"smiles": "CC(C)(C)c1ccc2c(c1)OC(C(=O)N/N=C\\c1ccccn1)CO2", "note": "(stereo not given)", "Potency": "inconclusive: 23.1 µM [inhibitor, single point]"}
{"smiles": "CCOCCCNC(=O)/C(C#N)=C/c1ccc(C(=O)OC)cc1", "Potency": "inactive"}
{"smiles": "CCCCn1nc(NC(=O)CCC)c2cc3cc(OC)ccc3nc21", "Potency": "inconclusive: 29.1 µM [inhibitor, single point]"}
{"smiles": "COc1ccccc1N1CCN(CC(=O)Nc2ccc(Cl)c(C(F)(F)F)c2)CC1", "Potency": "inconclusive: 20.6 µM [inhibitor, partial curve]"}
{"smiles": "O=C(COc1ccccc1)Nc1nc(-c2ccc(S(=O)(=O)N3CCOCC3)cc2)cs1", "Potency": "inconclusive: 29.1 µM [inhibitor, single point]"}
{"smiles": "O=c1n(Cc2ccccc2)c(O)c2n1Cc1ccccc1N=C2c1ccc(C(F)(F)F)cc1", "Potency": "inconclusive: 20.6 µM [inhibitor, single point]"}
{"smiles": "Cc1cc2n(n1)C(c1ccc(N(C)C)cc1)Nc1ccccc1-2", "note": "(stereo not given)", "Potency": "inconclusive: 29.1 µM [inhibitor, single point]"}
{"smiles": "O=c1c2oc3ccccc3c2n(Cc2cccc(C(F)(F)F)c2)c(=O)n1Cc1ccc2c(c1)OCO2", "Potency": "inconclusive: 2.59 µM [inhibitor, full curve]"}
{"smiles": "COCCNC(=O)C1(C)CCN(C(=O)c2ccc3sccc3c2)C1", "note": "(stereo not given)", "Potency": "inactive"}
{"smiles": "CCCCCCN1C[C@@H](O)[C@H](n2cc(COC(=O)c3ccccc3)nn2)C[C@@H]1c1ccc(OC)cc1", "Potency": "inconclusive: 23.1 µM [inhibitor, single point]"}
{"smiles": "CC(C)Sc1ncc(Cl)c(C(=O)Nc2ccc(S(=O)(=O)N3CCCCC3C)cc2)n1", "note": "(stereo not given)", "Potency": "active: 18.4 µM"}
{"smiles": "NS(=O)(=O)c1ccc(NC(=O)c2ccc(S(=O)(=O)N3CCc4ccccc43)cc2)cc1", "Potency": "inconclusive: 25.9 µM [inhibitor, partial curve, poor fit]"}
{"smiles": "CCN1CCN(c2cc(C)c3cc(NC(=S)N4CCC5(CC4)OCCO5)ccc3n2)CC1", "Potency": "inactive"}
{"smiles": "COC(=O)Cc1ccc(N(Cc2ccccc2F)S(=O)(=O)c2ccc(C)cc2)cc1", "Potency": "active: 18.4 µM"}
{"smiles": "Cc1ccc(C)c(N(CC(=O)NC2CCCC2)C(=O)CCC(=O)Nc2cc(C)on2)c1", "Potency": "inactive"}
{"smiles": "O=C(NNC(=O)C(O)c1ccccc1)NC1CCCCC1", "note": "(stereo not given)", "Potency": "inactive"}
{"smiles": "C=CC[n+]1c(-c2ccc(OC)c(OC)c2)csc1NNC(=O)Nc1ccccc1", "Potency": "active: 6.51 µM"}
{"smiles": "O=C(N/N=C/c1ccc(O)cc1)Nc1cccc2nsnc12", "Potency": "active: 20.6 µM"}
{"smiles": "CCOC(=O)C(NC(=O)c1ccccc1)(Nc1cccc(C)n1)C(F)(F)F", "note": "(stereo not given)", "Potency": "inconclusive: 18.4 µM [inhibitor, partial curve]"}
{"smiles": "O=C(Nc1ccccc1C(F)(F)F)N1CCN(c2ccc3nncn3n2)CC1", "Potency": "inactive"}
{"smiles": "CCOc1ccccc1NS(=O)(=O)c1ccc2oc(=O)c3ncn(C)c3c2c1", "Potency": "inactive"}
{"smiles": "CCN(CC(=O)Nc1cc(Cl)ccc1C)C(=O)CCS(=O)(=O)c1ccc(Cl)cc1", "Potency": "inconclusive: 20.6 µM [inhibitor, single point]"}
{"smiles": "CC(C)(C)c1nc(Sc2ncccc2[N+](=O)[O-])n[nH]1", "Potency": "inactive"}
{"smiles": "COC(=O)c1c(C)[nH]c(C)c1-c1cccc([N+](=O)[O-])c1", "Potency": "inconclusive: 29.1 µM [inhibitor, single point]"}
{"smiles": "NC1=NC(=O)/C(=C\\c2ccsc2)S1", "Potency": "inactive"}
{"smiles": "CC(C)(C)NC(=O)CN(Cc1cccs1)C(=O)CN1C(=O)C(=O)c2ccccc21", "activity change, negative = growth inhibition": "inconclusive: -31.4% [inhibitor]"}
{"smiles": "CCCN(c1ccc(C)cc1)c1nc(=O)c2cccnc2s1", "Potency": "active: 18.4 µM"}
{"smiles": "CC(C)Nc1cccnc1N1CCN(C(=O)c2cc3cc(NS(C)(=O)=O)ccc3[nH]2)CC1", "Potency": "inconclusive: 21.1 µM [inhibitor, single point]"}
{"smiles": "Cc1occc1C(=O)N1CCN(c2ccc(Cl)c(Cl)c2)CC1", "Potency": "active: 16.4 µM"}
{"smiles": "Cc1ccc(NC(=O)Cn2cc(S(=O)(=O)N3CCCC3)c(S(=O)(=O)N3CCCC3)c2)c(C)c1", "Potency": "inactive"}
{"smiles": "Cc1nc2ccccc2n1Cc1ccccc1", "Potency": "inconclusive: 25.9 µM [inhibitor, single point]"}
{"smiles": "CCCCNC(=O)Cn1nc(C)c(S(=O)(=O)N2CCOCC2)c1C", "Potency": "inactive"}
{"smiles": "N#CCOc1ccc(C2=NO[C@@H]3[C@@H]4C[C@@H]([C@H]5C(=O)N(c6ccc7c(c6)OCO7)C(=O)[C@@H]45)[C@H]23)cc1", "Potency": "inconclusive: 29.1 µM [inhibitor, single point]"}
{"smiles": "COc1cc(Cn2c3ccc(NC(=S)NCc4ccc(C)cc4)cc3c(=O)n2C)ccc1F", "Potency": "active: 20.6 µM"}
